This is one part of the list.
Experiments:
Experiment in all cases: glycan array binding signal (z-score within array); higher = stronger binding
Settings in all cases: glycan notation: IUPAC condensed, linker removed
[1] = target: Gal3S(b1-4)[Fuc(a1-3)]Glc
Procedure, shortened: (§1)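 The binding signal is a Z-score computed within each array. Data were drawn from 3228 arrays in the Consortium for Functional Glycomics database, restricted to those with a known protein sequence. Scores were averaged over arrays of the same protein sequence at different concentrations or buffers, and over linkers, and negative values can be taken as non-binding.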

[2] = target: Gal3S(b1-4)[Fuc(a1-3)]Glc6S
Procedure, shortened: as §1

[3] = target: Gal3S4S(b1-4)GlcNAc
Procedure, shortened: as §1

[4] = target: Gal3S6S(b1-4)GlcNAc
Procedure, shortened: as §1

[5] = target: Gal3S6S(b1-4)GlcNAc6S
Procedure, shortened: as §1

[6] = target: Gal4S(b1-4)GlcNAc
Procedure, shortened: as §1

[7] = target: Gal4S6S(b1-4)GlcNAc
Procedure, shortened: as §1

[8] = target: Gal6S(b1-4)Glc
Procedure, shortened: as §1

[9] = target: Gal6S(b1-4)Glc6S
Procedure, shortened: as §1

[10] = target: Gal6S(b1-4)GlcNAc
Procedure, shortened: as §1

[11] = target: Gal6S(b1-4)GlcNAc6S
Procedure, shortened: as §1

[12] = target: GalNAc(a1-3)Gal
Procedure, shortened: as §1

[13] = target: GalNAc(a1-3)GalNAc
Procedure, shortened: as §1

[14] = target: GalNAc(a1-3)GalNAc(a1-3)Gal(a1-4)Gal(b1-4)GlcNAc
Procedure, shortened: as §1

[15] = target: GalNAc(b1-3)Gal
Procedure, shortened: as §1

[16] = target: GalNAc(b1-3)Gal(a1-4)Gal(b1-4)GlcNAc
Procedure, shortened: as §1

[17] = target: GalNAc(b1-3)Gal(a1-4)Gal(b1-4)GlcNAc(b1-3)Gal(b1-4)Glc
Procedure, shortened: as §1

[18] = target: GalNAc(b1-3)Gal(a1-6)Gal(b1-4)Glc
Procedure, shortened: as §1

[19] = target: GalNAc(b1-3)GalNAc
Procedure, shortened: as §1

[20] = target: GalNAc(b1-4)GlcNAc
Procedure, shortened: as §1

[21] = target: GalNAc(b1-4)GlcNAc(b1-2)Man(a1-3)[GalNAc(b1-4)GlcNAc(b1-2)Man(a1-6)]Man(b1-4)GlcNAc(b1-4)GlcNAc
Procedure, shortened: as §1

[22] = target: Glc(a1-4)Glc
Procedure, shortened: as §1

[23] = target: Glc(a1-6)Glc(a1-6)Glc
Procedure, shortened: as §1

[24] = target: Glc(b1-4)Glc
Procedure, shortened: as §1

[25] = target: Glc(b1-6)Glc
Procedure, shortened: as §1

[26] = target: GlcA(b1-3)Gal
Procedure, shortened: as §1

[27] = target: GlcA(b1-3)GlcNAc
Procedure, shortened: as §1

[28] = target: GlcA(b1-6)Gal
Procedure, shortened: as §1

[29] = target: GlcNAc(a1-3)Gal(b1-4)GlcNAc
Procedure, shortened: as §1

[30] = target: GlcNAc(a1-4)Gal(b1-3)GlcNAc
Procedure, shortened: as §1

[31] = target: GlcNAc(a1-4)Gal(b1-4)GalNAc
Procedure, shortened: as §1

[32] = target: GlcNAc(a1-4)Gal(b1-4)GlcNAc
Procedure, shortened: as §1

[33] = target: GlcNAc(a1-4)Gal(b1-4)GlcNAc(b1-3)Gal(b1-4)Glc
Procedure, shortened: as §1

[34] = target: GlcNAc(a1-4)Gal(b1-4)GlcNAc(b1-3)Gal(b1-4)GlcNAc
Procedure, shortened: as §1

[35] = target: GlcNAc(a1-4)Gal(b1-4)GlcNAc(b1-3)Gal(b1-4)GlcNAc(b1-3)Gal(b1-4)GlcNAc
Procedure, shortened: as §1

[36] = target: GlcNAc(a1-4)Gal(b1-4)GlcNAc(b1-3)Gal(b1-4)[Fuc(a1-3)]GlcNAc(b1-3)Gal(b1-4)[Fuc(a1-3)]GlcNAc
Procedure, shortened: as §1

[37] = target: GlcNAc(a1-6)Gal(b1-4)GlcNAc
Procedure, shortened: as §1

[38] = target: GlcNAc(b1-2)Gal(b1-3)GalNAc
Procedure, shortened: as §1

[39] = target: GlcNAc(b1-2)Man(a1-3)[GlcNAc(b1-2)Man(a1-6)]Man(b1-4)GlcNAc(b1-4)GlcNAc
Procedure, shortened: as §1

[40] = target: GlcNAc(b1-2)Man(a1-3)[GlcNAc(b1-2)Man(a1-6)]Man(b1-4)GlcNAc(b1-4)[Fuc(a1-6)]GlcNAc
Procedure, shortened: as §1

[41] = target: GlcNAc(b1-2)[GlcNAc(b1-4)]Man(a1-3)[GlcNAc(b1-2)Man(a1-6)]Man(b1-4)GlcNAc(b1-4)GlcNAc
Procedure, shortened: as §1

[42] = target: GlcNAc(b1-3)Gal
Procedure, shortened: as §1

[43] = target: GlcNAc(b1-3)Gal(b1-3)GalNAc
Procedure, shortened: as §1

[44] = target: GlcNAc(b1-3)Gal(b1-4)Glc
Procedure, shortened: as §1

[45] = target: GlcNAc(b1-3)Gal(b1-4)GlcNAc
Procedure, shortened: as §1

B1: Pp2-A2 (Arabidopsis thaliana), Q07098 (protein)
chain: MPSNGDLDRQIEQLMECKPLSEADVRTLCDQARAILVEEYNVQPVKCPVTVCGDIHGQFYDLIELFRIGGNAPDTNYLFMGDYVDRGYYSVETVSLLVALKVRYRDRLTILRGNHESRQITQVYGFYDECLRKYGNANVWKYFTDLFDYLPLTALIESQVFCLHGGLSPSLDTLDNIRSLDRIQEVPHEGPMCDLLWSDPDDRCGWGISPRGAGYTFGQDIAAQFNHNNGLSLISRAHQLVMEGFNWCQDKNVVTVFSAPNYCYRCGNMAAILEIGENMEQNFLQFDPAPRQVEPDTTRKTPDYFL
[1]
  glycan array binding signal (z-score): 1.27
[2]
  glycan array binding signal (z-score): 4.36
[3]
  glycan array binding signal (z-score): 6.14
[4]
  glycan array binding signal (z-score): 2.2
[5]
  glycan array binding signal (z-score): 4.5
[6]
  glycan array binding signal (z-score): -0.312
[7]
  glycan array binding signal (z-score): 4.54
[8]
  glycan array binding signal (z-score): 1.48
[9]
  glycan array binding signal (z-score): 4.11
[10]
  glycan array binding signal (z-score): -0.117
[11]
  glycan array binding signal (z-score): 2.28
[12]
  glycan array binding signal (z-score): -0.744
[13]
  glycan array binding signal (z-score): -0.325
[14]
  glycan array binding signal (z-score): -0.626
[15]
  glycan array binding signal (z-score): -0.79
[16]
  glycan array binding signal (z-score): -0.619
[17]
  glycan array binding signal (z-score): -0.71
[18]
  glycan array binding signal (z-score): -0.622
[19]
  glycan array binding signal (z-score): -0.683
[20]
  glycan array binding signal (z-score): -0.398
[21]
  glycan array binding signal (z-score): -0.478
[22]
  glycan array binding signal (z-score): -0.06
[23]
  glycan array binding signal (z-score): 0.161
[24]
  glycan array binding signal (z-score): -0.143
[25]
  glycan array binding signal (z-score): 0.607
[26]
  glycan array binding signal (z-score): 0.275
[27]
  glycan array binding signal (z-score): 0.421
[28]
  glycan array binding signal (z-score): 0.706
[29]
  glycan array binding signal (z-score): -0.817
[30]
  glycan array binding signal (z-score): -0.392
[31]
  glycan array binding signal (z-score): -0.107
[32]
  glycan array binding signal (z-score): -0.247
[33]
  glycan array binding signal (z-score): -0.314
[34]
  glycan array binding signal (z-score): 0.102
[35]
  glycan array binding signal (z-score): -0.327
[36]
  glycan array binding signal (z-score): 5.17
[37]
  glycan array binding signal (z-score): -0.835
[38]
  glycan array binding signal (z-score): -0.723
[39]
  glycan array binding signal (z-score): -0.506
[40]
  glycan array binding signal (z-score): 3.08
[41]
  glycan array binding signal (z-score): -0.49
[42]
  glycan array binding signal (z-score): -0.346
[43]
  glycan array binding signal (z-score): -0.525
[44]
  glycan array binding signal (z-score): -0.721
[45]
  glycan array binding signal (z-score): -0.479

Source: the supplement of paper PMC8728848
